The values that follow come from ChEMBL document CHEMBL4888484, “Replenishing the malaria drug discovery pipeline: Screening and hit evaluation of the MMV Hit Generation Library 1 (HGL1) against asexual blood stage Plasmodium falciparum ,using a nano luciferase reporter read-out” (2022).

Among all 150,000 compounds or so, about 540 (0.36%) showed an effect of 50% or more. The list shows a part of the results.

One may read the % Inhibition as the relative decrease from the control value, in per cent.

This assay relates to Plasmodium falciparum. In words: Primary screen in NF54 nanoGlo assay, in single point, at 2uM, 72h; a lower Z score goes with more inhibition. In kind it is functional, Erythrocyte. Conditions: timepoint 72 hour.
As for `COCC(=O)N1CCC[C@@]2(CCN(C3CCCCCCC3)C2)C1`, the “% Inhibition” value is -5% and the Z score turned out to be 0.75.
On the same counts, the results for `CCCn1nnnc1CNc1cccc(C)c1C(N)=O` are 0% and 0.06.
The corresponding values for `CC(C)[C@H](Cn1nccn1)NS(=O)(=O)CCC(F)(F)F` are -3% and 0.62.
As to `CCc1ocnc1C(=O)N1CCC[C@H]1C(=O)Nc1ccc(-c2cscn2)cc1`, the “% Inhibition” value was -7% and the Z score worked out at 0.65.
On the same counts, the results for `COC(=O)CCNC(=O)c1nn(CC2CC2)c2c1CN(Cc1nc3ccccc3s1)CC2` are 2% and -0.21.
The corresponding values for `Cc1ccsc1CN(C)C(=O)c1n[nH]c(=O)[nH]1` are 0% and 0.02.
The corresponding values for `Cc1cccc(NC(=O)c2sc(=S)n(C[C@H]3CCCO3)c2N)c1` are 1% and -0.09.
Regarding `O=C(Nc1ccc([C@H]2OCC(=O)N(Cc3ccc(F)cc3)[C@@H]2CO)cc1)c1cnccn1`, the “% Inhibition” value is -10% and the Z score worked out at 1.48.
The corresponding values for `CN(C(=O)c1ccc(CS(=O)(=O)c2ccccc2)o1)C1CCCC1` are -6% and 0.87.
The corresponding values for `Fc1ccc(-c2nc3ccc(-c4ccc5c(c4)OCO5)cc3o2)c(F)c1F` are 1% and -0.1.
For `CCN1c2cc(C)ccc2-n2cccc2C12CCN(C(=O)NCc1cccc(OC)c1)CC2`, the “% Inhibition” value is reported as -9% and the Z score came to 1.19.
The corresponding values for `CC(C)=CCCC(C)NC[C@H]1CCCN1S(C)(=O)=O` (stereo partly specified) are -7% and 1.25.
On the same counts, the results for `COCC1(C(=O)N2CCC[C@H](c3nccn3Cc3ccccc3)C2)CCC1` are -2% and 0.26.
On the same counts, the results for `CC[C@H](C)N(Cc1c(-c2ccccc2)noc1N1CCC(C)CC1)C(=O)c1cccs1` are -2% and 0.27.
Take `CCCNC(=O)N1CC(Cc2nc(-c3cccnc3)no2)C1`: the “% Inhibition” value was -4% and the Z score came out at 0.68.
The corresponding values for `Cc1cccc(-c2nc(Cn3cnc4nc5c(cc4c3=O)C[C@@H](C)CC5)c(C)o2)c1` are -6% and 0.73.
`Cc1cc(C)n2ncc(-c3noc(CCC(=O)c4ccccc4)n3)c2n1`: the “% Inhibition” value is recorded as -11% and the Z score was 1.54.
The corresponding values for `O=C(NCC1=CCN([C@@H]2C=CCCC2)CC1)c1cccc(Cl)c1` are -2% and 0.36.
On to `Cc1ccc(CC2CN(C(=O)NCc3ccc4cncn4c3)C2)cc1`, for which the “% Inhibition” value is on record as -14% and the Z score worked out at 1.59.
Turning to `CC(C)[C@H](C)NC(=O)Nc1cccc(OC(F)F)c1`, the “% Inhibition” value was determined as 1% and the Z score is given as -0.13.
`O=C(CN(C(=O)c1ccc(Cl)cc1Cl)C1CC1)N(CCc1c[nH]c2ccccc12)Cc1ccc(Cl)cc1`: the “% Inhibition” value is -7% and the Z score is listed as 1.
As for `C[C@@H](c1ncc(-c2ccccc2)o1)N1CCN(Cc2ccccn2)CC1`, the “% Inhibition” value is given as -11% and the Z score is listed as 2.04.
On the same counts, the results for `COc1ccc(-c2c(-c3cccc(OC)c3)[nH]c3c2c(=O)[nH]c(=O)n3C)cc1` are 90% and -8.97.
The corresponding values for `Cc1nc(N2C(=O)N(C)C3(CCCC3)C2=O)oc1C` are 3% and -0.31.
With `CN1CC[C@H]2CC[C@@H](C1)N2Cc1cc(C#N)n(C)c1`, the “% Inhibition” value turned out to be 14% and the Z score is listed as -1.3.
On the same counts, the results for `Cc1nc2c(C(=O)N[C@@H]3CCCOC3)ccnc2[nH]1` are -3% and 0.29.
The corresponding values for `O=C(O)[C@H]1CN(Cc2cncn2Cc2ccccc2)C[C@@H]1C1CC1` are 1% and -0.28.
On the same counts, the results for `Cc1ccnc(NC(=O)Cc2c(C)nc(C)[nH]c2=O)c1` are -11% and 1.21.
On to `CCN(Cc1cnn(CC)c1)C(=O)[C@@H]1CCCCC(=O)N1Cc1ccccc1`, for which the “% Inhibition” value is recorded as -5% and the Z score stood at 0.53.
Turning to `O=C(Cc1cc2c(ccc3ccccc32)o1)N[C@H]1CCS(=O)(=O)C1`, the “% Inhibition” value is given as 31% and the Z score is listed as -3.48.
On the same counts, the results for `CC(Cn1cncn1)NC(=O)N1CC(N2CCOCC2)CC1C` (stereo unspecified) are 2% and -0.25.
The corresponding values for `Cc1nc2c(C#N)cnn2c2c1CCN2Cc1ccco1` are -2% and 0.24.
On the same counts, the results for `Cc1ccc(-n2nc(C(=O)NCc3ccccn3)c(=O)n(Cc3ccccc3)c2=O)cc1F` are -13% and 1.57.
`O=C(C[C@@H]1CCNC[C@@H]1Cc1cc(COc2ccccc2)on1)Nc1ccccc1`: the “% Inhibition” value turned out to be 33% and the Z score was -3.75.
On the same counts, the results for `Cc1c(NC(=O)c2ccccc2C(=O)c2ccc(Cl)cc2)c(=O)n(-c2ccccc2)n1C` are 8% and -1.14.
The corresponding values for `CCOc1ccccc1[C@H]1C2CCCCC2(O)CCN1CC(N)=O` (stereo partly specified) are -3% and 0.35.
As for `COc1cccc(NC(=O)c2c([O-])n(-c3cccc(OC)c3)n[n+]2CC#N)c1`, the “% Inhibition” value is listed as -20% and the Z score is recorded as 2.33.
On to `CNC(=O)Cn1nc(C(=O)N2CCO[C@H](C(=O)N3CCCCCC3)C2)cc1C`, for which the “% Inhibition” value stood at 2% and the Z score was -0.25.
Turning to `Cc1cnc(C(=O)N[C@@H]2CCC[C@@H]2C(=O)N2CCN(C(=O)c3ccco3)CC2)cn1`, the “% Inhibition” value came out at 4% and the Z score was -0.47.
On the same counts, the results for `O=C(COCC(=O)Nc1ccc2c(c1)CCC2)Nc1ccc2c(c1)CCC2` are -14% and 1.26.
As to `Nc1nc(N2CCOCC2)ncc1C(=O)Nc1ccccc1`, the “% Inhibition” value is 10% and the Z score is -1.22.
The corresponding values for `O=C(NC(c1ccccn1)C(F)(F)F)C1CC(Cc2cccc(F)c2)=NO1` (stereo unspecified) are 14% and -1.8.
With `COc1ccccc1-c1nn(-c2cccc(F)c2)c(OC(C)=O)c1-c1ccc(NC(=O)c2ccccc2)cc1`, the “% Inhibition” value is reported as -9% and the Z score was 1.06.
On to `COc1ccc(NC(=O)COC(=O)c2cc(-c3ccc(Cl)c(Cl)c3Cl)nc3ccccc23)cc1S(=O)(=O)N1CCOCC1`, for which the “% Inhibition” value is given as -3% and the Z score is reported as 0.53.
The corresponding values for `Cc1ncsc1Cn1ccn2nc(C(F)(F)F)cc2c1=O` are 15% and -1.93.
Consider `COc1ccc(N2CCN(Cc3cc(-c4ccc(Cl)cc4)no3)CC2)cc1`, for which the “% Inhibition” value turned out to be 37% and the Z score is given as -4.83.
The corresponding values for `CC(NCc1cncn1C)C(C)N1CCOCC1` (stereo unspecified) are -1% and 0.11.
On the same counts, the results for `Cc1cccc(C)c1NC(=O)N[C@H]1CCCC12OCCO2` are 11% and -1.23.
On the same counts, the results for `COCCN(Cc1cccs1)c1cc([C@H]2CCOC2)ncn1` are -12% and 2.55.
For `Cc1noc(C)c1C(C)NC(=O)N1CCCCC1CCO` (stereo unspecified), the “% Inhibition” value was -4% and the Z score was 0.67.
On the same counts, the results for `CC1CCC2(CC1)CC(=O)N(C[C@@H](O)CC(F)(F)F)C2=O` (stereo partly specified) are -6% and 1.11.
The corresponding values for `COc1ccc(-c2noc(N3CCN(c4cc(Cl)ccc4C)CC3)n2)cc1OC` are 7% and -1.14.
On to `Cc1ccncc1NC(=O)Cn1nc(C2CC2)ccc1=O`, for which the “% Inhibition” value amounted to 1% and the Z score was -0.1.
On the same counts, the results for `CCCNC(=O)N1CCC2(CC1)C[C@@H](N1CCN(c3ccccn3)CC1)CCO2` are -16% and 1.68.
On the same counts, the results for `COc1ccc(C2=NN=C(n3nc(C)cc3C)c3ccccc3C2)cc1` are -8% and 0.99.
The corresponding values for `CCCCOCCNc1ccc(Br)cc1` are -6% and 0.79.
On to `CCn1nc(C)c(CN2CC[C@](CCOC)(NS(=O)(=O)c3ccccc3)C2)c1C`, for which the “% Inhibition” value is recorded as -12% and the Z score was 1.36.
On the same counts, the results for `CN1CCN(C(=O)c2cn3ccccc3n2)CC1=O` are 1% and -0.07.
On the same counts, the results for `C=CCCS(=O)(=O)NCCN1CC(C)CC(C)C1` (stereo unspecified) are 0% and -0.04.
On the same counts, the results for `C[C@@H](CNS(=O)(=O)CCC(F)(F)F)c1ccc(F)cc1` are 0% and -0.02.
Take `O=C(O)[C@@H]1CC2(CCN(C(=O)C3(c4ccccc4)CCCC3)CC2)CN1`: the “% Inhibition” value is given as -6% and the Z score was found to be 1.07.
On the same counts, the results for `CCNC(=O)N1CCN(c2cc(Oc3cc(C)ccc3F)ncn2)C[C@@H]1C` are -6% and 1.
As to `Cn1cc([C@@H]2CCCN2Cc2nccn2Cc2ccccc2)cn1`, the “% Inhibition” value is -5% and the Z score is on record as 0.74.
Consider `Cc1cnccc1CN(C)[C@@H](C(=O)O)c1ccc2c(c1)OCCO2`, for which the “% Inhibition” value is given as -2% and the Z score is 0.2.
On the same counts, the results for `Clc1ccc2nc3c(c(-c4ccccc4)c2c1)CCCCC3` are -2% and 0.31.
On the same counts, the results for `COc1ccccc1CCNC(=O)N1CCCn2nc(C#N)cc2C1` are -4% and 0.87.
On the same counts, the results for `O=C(N[C@H]1CC12CCC2)c1cncs1` are -15% and 2.05.
For `CC(=O)N1CC[C@H](NC(=O)c2cccc(-n3cccn3)n2)c2ccc(F)cc2C1`, the “% Inhibition” value amounted to 0% and the Z score is reported as -0.04.
On the same counts, the results for `Cc1nccc([C@H](C)NC(=O)N2CCn3cncc3C2)n1` are -6% and 0.59.
Regarding `Cc1cccc(OC[C@H](C)NC(=O)c2c(C)nc(C(C)C)[nH]c2=O)c1`, the “% Inhibition” value was -6% and the Z score is 0.94.
On the same counts, the results for `CC1CCN(S(=O)(=O)N2CCC(C(=O)N3CC[C@H](c4nc(C5CCOCC5)no4)C3)CC2)CC1` are -22% and 2.8.
On the same counts, the results for `CC(C)[C@H](NC(=O)c1ccc(C2CCOCC2)cc1)c1cnn(C)c1` are -1% and 0.11.
The corresponding values for `Cn1ccc(C(=O)NC[C@H]2CCCO2)n1` are 3% and -0.38.
On to `CCCn1nc(C)cc1CN(C)c1ccc(C(=O)O)cc1NS(=O)(=O)c1cccc(C)c1`, for which the “% Inhibition” value was -8% and the Z score was 0.81.
The corresponding values for `COc1c(C(=O)Nc2cccc(F)c2)oc2ccc(NC(=O)c3cc(C)cc(C)c3)cc12` are -17% and 2.
With `CC(C)(CNC(=O)C1CCCCC1)N1CCOCC1`, the “% Inhibition” value is on record as -14% and the Z score was 2.1.
For `CC(C)c1cc(CNC(=O)c2cnc(-c3cccs3)nc2)no1`, the “% Inhibition” value is -5% and the Z score came out at 0.44.
On the same counts, the results for `CN1N=C(c2nc(C3(NC(=O)OC(C)(C)C)CCC3)no2)CCC1=O` are -1% and 0.11.
On the same counts, the results for `Cc1c(NC(=O)Nc2ccc3c(c2)OCCO3)cnn1C` are -7% and 0.66.
Consider `O=C(NCCn1cc(Cl)cn1)[C@H]1CCc2ccccc2C1`, for which the “% Inhibition” value was -5% and the Z score is reported as 0.86.
The corresponding values for `COc1ccc2ncn(CCCc3csc(N)n3)c(=O)c2c1` are -15% and 1.97.
Regarding `CC(F)(F)C(C)(C)NC(=O)c1ncccc1F`, the “% Inhibition” value is reported as 1% and the Z score is on record as -0.22.
The corresponding values for `Cc1nscc1C(=O)NCCN1CC2CCC(C1)O2` are -4% and 0.56.
